Test results as given in publication PMC7819943, “Rice protein-binding microarrays: a tool to detect cis-acting elements near promoter regions in rice”.
This is one part of the list.

Each sequence was assayed against T1, OsWOX13 (Oryza sativa, UniProt Q5QMM3 1-267) (assay: protein-binding microarray (RPBM); PBS, 2% BSA, 51.3 ng/ul salmon testes DNA, 50 uM zinc acetate, 200 nM TF, 25 C, 1 h; high values mean tight binding). Conditions: protein: recombinant; tags: N-terminal polyhistidine and DsRed monomer fusion (pET32a); label: CyDye5-dUTP incorporated in the synthesized complementary strand; 3' TTTTT single-stranded linker to array surface; dsDNA, one strand shown.
T1 sequence: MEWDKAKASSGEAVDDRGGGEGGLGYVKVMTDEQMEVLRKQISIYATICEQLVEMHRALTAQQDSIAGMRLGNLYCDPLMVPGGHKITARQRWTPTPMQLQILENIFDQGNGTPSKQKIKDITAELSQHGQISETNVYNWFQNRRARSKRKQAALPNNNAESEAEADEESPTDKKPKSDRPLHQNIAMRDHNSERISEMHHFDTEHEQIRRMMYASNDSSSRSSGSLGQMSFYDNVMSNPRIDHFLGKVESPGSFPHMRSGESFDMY
Method in brief: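 Polyhistidine-tagged DsRed fusions of transcription factors, joined at the N-terminus, were expressed in E. coli BL21-CodonPlus and isolated on Ni–NTA. They were incubated at 200 nM for 1 h at 25 °C on a custom Agilent array, double-stranded and BSA-blocked, in PBS with 2% BSA, salmon testes DNA and 50 µM zinc acetate. The binding signal is per-feature fluorescence intensity (arbitrary units) read on an Axon 4000B scanner after washing.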

Sequence | binding signal
TGTTGCTGTTTAATTTGCTGATGTCTCTGCCATGGCACCACGGAGTCACCTAGTGCAG | 8640 fluorescence intensity (a.u.)
CCTTAATTATGCTCTCTCAATAAACGATGTGTCTGACTCCCGGAGTCACCTAGTGCAG | 36500 fluorescence intensity (a.u.)
AACAATTTAACAACAAATCGAGTTAATGTTTCAGACGCGGCGGAGTCACCTAGTGCAG | 3980 fluorescence intensity (a.u.)
CATGGTAAATTTATCGTTTTATGTTGATACCTCCTCGGCACGGAGTCACCTAGTGCAG | 10600 fluorescence intensity (a.u.)
ATAATAATCTAACTTATAGATTATAATAATCTATTATAATCGGAGTCACCTAGTGCAG | 10700 fluorescence intensity (a.u.)
AGTCAGCTGATTTAAATATAAACAGGGGTAAGAATTTAAGCGGAGTCACCTAGTGCAG | 15000 fluorescence intensity (a.u.)
TATAATTAATTATTTGCTAGATTTCATTCATATGACAATTCGGAGTCACCTAGTGCAG | 54600 fluorescence intensity (a.u.)
TGCATGGTAATATGATTTGACACGAAGGAAGGAAAGTAGACGGAGTCACCTAGTGCAG | 4150 fluorescence intensity (a.u.)
AGAATATGATTTTAAAATTAATTTTAGGGGAGGGTTTTACCGGAGTCACCTAGTGCAG | 26000 fluorescence intensity (a.u.)
TTCGGATTTTGATTGTGTTTCACATTTTCAAACCGCCAATCGGAGTCACCTAGTGCAG | 11000 fluorescence intensity (a.u.)
CGGAATTGTAATTTTGTCAACTTGGGTCCCAGAGATACCTCGGAGTCACCTAGTGCAG | 17100 fluorescence intensity (a.u.)
CGAGATTGCCACACAAATGGGCTTTAATTACTGGAGGCCACGGAGTCACCTAGTGCAG | 29100 fluorescence intensity (a.u.)
ATGATGGGTTTATAATTTTACCTTTGAACAGTTCTTTGACCGGAGTCACCTAGTGCAG | 12400 fluorescence intensity (a.u.)
TATGATTAAACTGCTTATTTATATATTATAACACTATAGTCGGAGTCACCTAGTGCAG | 23700 fluorescence intensity (a.u.)
CATGGACTAATTAGGCCCAAAAGATTCGTTTTGCAATTTCCGGAGTCACCTAGTGCAG | 8800 fluorescence intensity (a.u.)
TTAATTGATCTAATTTGGTGTTGTAAATATTAATATATTTCGGAGTCACCTAGTGCAG | 15200 fluorescence intensity (a.u.)
TAGATTAATTTGTCATCAAAACACCCTCATATAATTAATTCGGAGTCACCTAGTGCAG | 19200 fluorescence intensity (a.u.)
CTAAATTAAACTGGTCCGGAATAAGTTTTGTGACAAAGTTCGGAGTCACCTAGTGCAG | 32500 fluorescence intensity (a.u.)
CATAATTCGTAAATTTACAACTACCAAATCAAATGCAAGCCGGAGTCACCTAGTGCAG | 8180 fluorescence intensity (a.u.)
ATGCAATCCAATTACCAATCTGATCGTGATGTTGCGTTTGCGGAGTCACCTAGTGCAG | 15200 fluorescence intensity (a.u.)
CATGTCTAGATTTATTAACATCAATATAAATATGAAAATGCGGAGTCACCTAGTGCAG | 3200 fluorescence intensity (a.u.)

Sequence | binding signal
CTAAAATTTAAAATTTTAGTTTATAAGAATAAGTATAAGACGGAGTCACCTAGTGCAG | 4900 fluorescence intensity (a.u.)
CCTACATTAGTAGTTTAATTGTAGAGGACCTGGATCCTTACGGAGTCACCTAGTGCAG | 3500 fluorescence intensity (a.u.)
TAAACTGAATGTAATATTTTGGCAGTTAAATAGTTCACACCGGAGTCACCTAGTGCAG | 3480 fluorescence intensity (a.u.)
AAGATTTAAACTTTGAAGTCAAATTTTGAAATCTTTCAACCGGAGTCACCTAGTGCAG | 4070 fluorescence intensity (a.u.)
ATCCATTCATTGATAGTGTGGTTTTGTGAAACTAAACTACCGGAGTCACCTAGTGCAG | 3240 fluorescence intensity (a.u.)
CTTCTAATTGGAGTAGTGAGTTCCCTACCATTGACGCAATCGGAGTCACCTAGTGCAG | 20700 fluorescence intensity (a.u.)
TTCAATCAACCAGTATGTTTCCTATGCCATGCCATGCAAACGGAGTCACCTAGTGCAG | 4440 fluorescence intensity (a.u.)
GTCTTGATGGCGTTTGTTGAATTGGCTATACAATCTGCTGCGGAGTCACCTAGTGCAG | 6560 fluorescence intensity (a.u.)
TACAAATAGACAAATTGTAATGACATATTTTAAAACTGAACGGAGTCACCTAGTGCAG | 25200 fluorescence intensity (a.u.)
AATAATTGCATCAGAAAATTAAGATCGTGCGTGATAATTACGGAGTCACCTAGTGCAG | 13400 fluorescence intensity (a.u.)
GTTCATAATCTACAGCAAATTACTTCCCCTGAATTTTAATCGGAGTCACCTAGTGCAG | 4350 fluorescence intensity (a.u.)
GTTTGACATGCAGACTTGATTCTATCACCTATAGCATCTGCGGAGTCACCTAGTGCAG | 8550 fluorescence intensity (a.u.)
AATTAATGTGATAAATTTTCATGCACCAAGAGTGTACTCCCGGAGTCACCTAGTGCAG | 15200 fluorescence intensity (a.u.)
GACAAATTATGGCATTTTAAAATCCAAAATATGGAAAGGGCGGAGTCACCTAGTGCAG | 14600 fluorescence intensity (a.u.)
GCCGTCAATGACAGATGCAGATTCTCTGGAGGAAGGCACACGGAGTCACCTAGTGCAG | 5060 fluorescence intensity (a.u.)
TCAAATTTGAGTCCTCATCAGTGCTCATCAATAAGTTATTCGGAGTCACCTAGTGCAG | 3920 fluorescence intensity (a.u.)
GGAGATTGGACCCCGCCGCATCTCCACGTCTCCTTCCGCCCGGAGTCACCTAGTGCAG | 14200 fluorescence intensity (a.u.)
CATAAATGTCAATTTTGCTAGCCATTAGACTCAACATGCACGGAGTCACCTAGTGCAG | 17600 fluorescence intensity (a.u.)
GGTGATGTTAAATTATAGTGGTTTAAAATTTTAAATTTCACGGAGTCACCTAGTGCAG | 10800 fluorescence intensity (a.u.)
GGCAATGCATGATTAGCCCATCAGGAAATATATTTACAAACGGAGTCACCTAGTGCAG | 4200 fluorescence intensity (a.u.)
ATACAATAACAATCATATTTATCATTTCCTTTGCTCCGAACGGAGTCACCTAGTGCAG | 3250 fluorescence intensity (a.u.)
